Consider six molecules from US20200002439A1 (GENSUN BIOPHARMA, published 2020).

Read-outs that look alike come from different tables or passages of the source.

In assay [1] the target is T1, human PD-1 on transfected CHO-K1 cells (human, UniProt Q15116 25-288).
T1 construct: also called Human PD-1 transfected CHO-K1 cells
As to the kind of experiment: cell-based blocking assay, flow cytometry: binding of FITC labeled human PD-L1-Fc to human PD-1 transfected CHO-K1 cells is blocked.

A further assay concerns the target T2, recombinant human Ang2 (human, UniProt O15123 19-496).
T2 construct: also called Ang2 (R&D)
T2 sequence (looked up): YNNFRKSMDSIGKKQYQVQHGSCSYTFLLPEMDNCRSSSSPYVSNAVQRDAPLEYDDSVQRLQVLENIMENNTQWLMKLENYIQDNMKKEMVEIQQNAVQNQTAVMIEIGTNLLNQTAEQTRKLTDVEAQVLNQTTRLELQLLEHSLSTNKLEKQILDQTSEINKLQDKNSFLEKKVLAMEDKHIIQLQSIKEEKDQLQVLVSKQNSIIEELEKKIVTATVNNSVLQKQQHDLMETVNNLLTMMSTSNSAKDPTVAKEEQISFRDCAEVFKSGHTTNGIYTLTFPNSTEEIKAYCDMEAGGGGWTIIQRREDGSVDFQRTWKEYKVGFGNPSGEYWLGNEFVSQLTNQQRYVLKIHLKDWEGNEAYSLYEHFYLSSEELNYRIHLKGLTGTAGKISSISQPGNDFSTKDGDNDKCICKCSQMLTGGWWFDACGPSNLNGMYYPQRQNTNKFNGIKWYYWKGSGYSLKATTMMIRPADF
Put plainly: blocking ELISA: Ang2 coated on the plate, binding of recombinant human Tie2 is blocked. As to the method:
IC50 values were determined as the mid-point in the activity curve.
For orientation: In an ELISA, binding on a coated surface is turned into a signal by an enzyme label.

Assay [2] has as its target T1, human PD-1 on transfected CHO-K1 cells. As to the kind of experiment: cell-based blocking assay, flow cytometry: binding of FITC labeled human PD-L1-Fc to human PD-1 transfected CHO-K1 cells is blocked. The procedure:
Incubate for 15 mins before analysis with the iQue intellicyt system.
This is another data set of the same source.

Assay [3] concerns the target T3, recombinant human VEGF 165 (human, UniProt P15692-4 27-191).
T3 construct: Bought protein
T3 sequence (looked up): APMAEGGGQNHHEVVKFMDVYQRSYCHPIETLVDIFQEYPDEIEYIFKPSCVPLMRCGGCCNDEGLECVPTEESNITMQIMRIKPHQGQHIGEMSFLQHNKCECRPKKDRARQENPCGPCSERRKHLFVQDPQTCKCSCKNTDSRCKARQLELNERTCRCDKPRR
As to the kind of experiment: blocking ELISA: VEGF-165 coated on the plate, binding of recombinant human VEGFR-2-hu IgG1-His Tag is blocked. The procedure:
Briefly, 0.5 ug/ml of recombinant human VEGF-165 (R&D #293-VE-050/CF) in carbonate-bicarbonate buffer was coated to the wells in a 96-well assay plate and incubated overnight at 4° C. The wells were then washed 3 times with 0.05% Tween 20 in PBS (wash buffer), blocked with 1% BSA in PBS for 1 hour at room temperature, and washed 3 times with wash buffer. 50 μl 5-fold serially diluted antibodies were then added to wells in the plate and incubated for 30 minutes at room temperature. […] 100 μl anti-His tag HRP (1:10,000) was then added and the plates were incubated for 40 mins at room temperature and washed 3 times with wash buffer.

For a further assay, the target named is human TGFβ1 (human, UniProt P01137 part only). Put plainly: cell-based or functional assay.

T1 sequence (Q15116 25-288 limits assumed): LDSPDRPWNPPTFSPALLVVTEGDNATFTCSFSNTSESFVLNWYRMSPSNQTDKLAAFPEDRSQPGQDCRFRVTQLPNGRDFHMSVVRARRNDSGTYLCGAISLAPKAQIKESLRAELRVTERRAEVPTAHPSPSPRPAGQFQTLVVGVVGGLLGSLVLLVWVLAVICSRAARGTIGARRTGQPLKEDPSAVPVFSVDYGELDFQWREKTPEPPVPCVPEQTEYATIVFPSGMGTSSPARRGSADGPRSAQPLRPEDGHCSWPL
Sequence of human TGFβ1 (P01137 279-390 limits assumed): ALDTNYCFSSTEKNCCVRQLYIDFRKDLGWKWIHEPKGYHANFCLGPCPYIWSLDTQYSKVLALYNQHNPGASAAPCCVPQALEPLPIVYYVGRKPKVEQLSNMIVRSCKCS

B1: TS-ZPT-1.1(2P16) (other)
chain 1: SDTGRPFVEMYSEIPEIIHMTEGRELVIPCRVTSPNITVTLKKFPLDTLIPDGKRIIWDSRKGFIISNATYKEIGLLTCEATVNGHLYKTNYLTHRQTNTIIDVVLSPSHGIELSVGEKLVLNCTARTELNVGIDFNWEYPSSKHQHKKLVNRDLKTQSGSEMKKFLSTLTIDGVTRSDQGLYTCAASSGLMTKKNSTFVRVHEKGGGGSGGGGSGGGGSQVQLVQSGAEVKKPGASVKVSCKASGYTFTTYYIYWVRQAPGQGLEWMGGINPGNGGTNFNEKFKIRVTMTRDTSISTAYMELSSLRSEDTAVYYCARRYHGYDGGLDYWGQGTLVTVSSASTKGPSVFPLAPCSRSTSESTAALGCLVKDYFPEPVTVSWNSGALTSGVHTFPAVLQSSGLYSLSSVVTVPSSSLGTKTYTCNVDHKPSNTKVDKRV[human IgG4 Fc with S228P (EU numbers) left out]GGGGGAQQEECEWDPWTCEHMGSGSATGGSGSTASSGSGSATHQEECEWDPWTCEHMLE
chain 2: SDTGRPFVEMYSEIPEIIHMTEGRELVIPCRVTSPNITVTLKKFPLDTLIPDGKRIIWDSRKGFIISNATYKEIGLLTCEATVNGHLYKTNYLTHRQTNTIIDVVLSPSHGIELSVGEKLVLNCTARTELNVGIDFNWEYPSSKHQHKKLVNRDLKTQSGSEMKKFLSTLTIDGVTRSDQGLYTCAASSGLMTKKNSTFVRVHEKGGGGSGGGGSGGGGSDIVLTQSPASLAVSPGQRATITCRASKSVSTSGFSYIHWYQQKPGQPPKLLIYLASNLESGVPARFSGSGSGTDFTLTINPVEANDTANYYCQHTWELPNTFGGGTKVEIKRTVAAPSVFIFPPSDEQLKSGTASVVCLLNNFYPREAKVQWKVDNALQSGNSQESVTEQDSKDSTYSLSSTLTLSKADYEKHKVYACEVTHQGLSSPVTKSFNRGEC
In general, IC50 refers to the concentration that inhibits the measured activity by half. On to B1, for which the IC50 in assay [1] came to 140 nM.

B2: TS-ZPT-1.2(2P16) (other)
chain 1: B1 chain 1
chain 2: DIVLTQSPASLAVSPGQRATITCRASKSVSTSGFSYIHWYQQKPGQPPKLLIYLASNLESGVPARFSGSGSGTDFTLTINPVEANDTANYYCQHTWELPNTFGGGTKVEIKRTVAAPSVFIFPPSDEQLKSGTASVVCLLNNFYPREAKVQWKVDNALQSGNSQESVTEQDSKDSTYSLSSTLTLSKADYEKHKVYACEVTHQGLSSPVTKSFNRGEC
Turning to B2, the values for the IC50 (in assay [1]; with recombinant human Ang2) were 14.8 nM and 0.95 nM, respectively.

B3: TS-ZPT-1.3(2P16) (other)
chain 1: QVQLVQSGAEVKKPGASVKVSCKASGYTFTTYYIYWVRQAPGQGLEWMGGINPGNGGTNFNEKFKIRVTMTRDTSISTAYMELSSLRSEDTAVYYCARRYHGYDGGLDYWGQGTLVTVSSASTKGPSVFPLAPCSRSTSESTAALGCLVKDYFPEPVTVSWNSGALTSGVHTFPAVLQSSGLYSLSSVVTVPSSSLGTKTYTCNVDHKPSNTKVDKRV[human IgG4 Fc with S228P (EU numbers) left out]GGGGGAQQEECEWDPWTCEHMGSGSATGGSGSTASSGSGSATHQEECEWDPWTCEHMLE
chain 2: B1 chain 2
As to B3, the IC50 in assay [1] was 33 nM.

B4: TS-ZPB-2(2P17) (other)
chain 1: IPPHVQKSVNNDMIVTDNNGAVKFPQLCKFCDVRFSTCDNQKSCMSNCSITSICEKPQEVCVAVWRKNDENITLETVCHDPKLPYHDFILEDAASPKCIMKEKKKPGETFFMCSCSSDECNDNIIFSEEYNTSNPDGGGGSGGGGSGGGGSQVQLVQSGAEVKKPGASVKVSCKASGYTFTSYYIHWVRQAPGQGLEWMGWIFPGSGNSKYNENFKGRVTLTADTSTSTVYMELSSLRSEDTAVYYCASETYDYGDYWGQGTLVTVSSASTKGPSVFPLAPCSRSTSESTAALGCLVKDYFPEPVTVSWNSGALTSGVHTFPAVLQSSGLYSLSSVVTVPSSSLGTKTYTCNVDHKPSNTKVDKRV[human IgG4 Fc with S228P (EU numbers) left out]GGGGSGGGGSGGGGSSDTGRPFVEMYSEIPEIIHMTEGRELVIPCRVTSPNITVTLKKFPLDTLIPDGKRIIWDSRKGFIISNATYKEIGLLTCEATVNGHLYKTNYLTHRQTNTIIDVVLSPSHGIELSVGEKLVLNCTARTELNVGIDFNWEYPSSKHQHKKLVNRDLKTQSGSEMKKFLSTLTIDGVTRSDQGLYTCAASSGLMTKKNSTFVRVHEK
chain 2: DIQMTQSPSFLSASVGDRVTITCKASQNVGTNVAWYQQKPGKAPKALIYSASYRYSGVPSRFSGSGSGTEFTLTISSLQPEDFATYYCQQYYSYPYTFGQGTKLEIKRTVAAPSVFIFPPSDEQLKSGTASVVCLLNNFYPREAKVQWKVDNALQSGNSQESVTEQDSKDSTYSLSSTLTLSKADYEKHKVYACEVTHQGLSSPVTKSFNRGEC
As to B4, the results for the IC50 in assay [2] and in assay [3] were 11.1 nM and 1.92 nM, respectively. Moreover, in the assay with human TGFβ1, the “IC50; luciferase signal of TGFβ/SMAD SBE Reporter-HEK293 cells stimulated with human TGFβ1” value (“IC50; luciferase signal” below) is 0.24 nM.

B5: TS-ZPB-1(2P17) (other)
chain 1: SDTGRPFVEMYSEIPEIIHMTEGRELVIPCRVTSPNITVTLKKFPLDTLIPDGKRIIWDSRKGFIISNATYKEIGLLTCEATVNGHLYKTNYLTHRQTNTIIDVVLSPSHGIELSVGEKLVLNCTARTELNVGIDFNWEYPSSKHQHKKLVNRDLKTQSGSEMKKFLSTLTIDGVTRSDQGLYTCAASSGLMTKKNSTFVRVHEKGGGGSGGGGSGGGGSQVQLVQSGAEVKKPGASVKVSCKASGYTFTSYYIHWVRQAPGQGLEWMGWIFPGSGNSKYNENFKGRVTLTADTSTSTVYMELSSLRSEDTAVYYCASETYDYGDYWGQGTLVTVSSASTKGPSVFPLAPCSRSTSESTAALGCLVKDYFPEPVTVSWNSGALTSGVHTFPAVLQSSGLYSLSSVVTVPSSSLGTKTYTCNVDHKPSNTKVDKRV[human IgG4 Fc with S228P (EU numbers) left out]GGGGSGGGGSGGGGSIPPHVQKSVNNDMIVTDNNGAVKFPQLCKFCDVRFSTCDNQKSCMSNCSITSICEKPQEVCVAVWRKNDENITLETVCHDPKLPYHDFILEDAASPKCIMKEKKKPGETFFMCSCSSDECNDNIIFSEEYNTSNPD
chain 2: B4 chain 2
Regarding B5, the IC50 was determined as 9.29 nM in assay [2] and 1.32 nM in assay [3]. For the same molecule, the “IC50; luciferase signal” value with human TGFβ1 turned out to be 0.07 nM.

B6: TS-ZPB-5(2P17) (other)
heavy: QVQLVQSGAEVKKPGASVKVSCKASGYTFTSYYIHWVRQAPGQGLEWMGWIFPGSGNSKYNENFKGRVTLTADTSTSTVYMELSSLRSEDTAVYYCASETYDYGDYWGQGTLVTVSSASTKGPSVFPLAPCSRSTSESTAALGCLVKDYFPEPVTVSWNSGALTSGVHTFPAVLQSSGLYSLSSVVTVPSSSLGTKTYTCNVDHKPSNTKVDKRV[human IgG4 Fc with S228P (EU numbers) left out]GGGGSGGGGSGGGGSSDTGRPFVEMYSEIPEIIHMTEGRELVIPCRVTSPNITVTLKKFPLDTLIPDGKRIIWDSRKGFIISNATYKEIGLLTCEATVNGHLYKTNYLTHRQTNTIIDVVLSPSHGIELSVGEKLVLNCTARTELNVGIDFNWEYPSSKHQHKKLVNRDLKTQSGSEMKKFLSTLTIDGVTRSDQGLYTCAASSGLMTKKNSTFVRVHEKGGGGSGGGGSGGGGSIPPHVQKSVNNDMIVTDNNGAVKFPQLCKFCDVRFSTCDNQKSCMSNCSITSICEKPQEVCVAVWRKNDENITLETVCHDPKLPYHDFILEDAASPKCIMKEKKKPGETFFMCSCSSDECNDNIIFSEEYNTSNPD
light: B4 chain 2
notes: also called TS-TPB-5
For B6, the IC50 in assay [2] was determined as 2.72 nM; in assay [3], 6.58 nM. Moreover, the “IC50; luciferase signal” value in the assay with human TGFβ1 came to 0.17 nM.
